# Data taken from PubChem BioAssay AID662 (National Center for Advancing Translational Sciences (NCATS), 2007).
# Screen size: about 71,000 compounds; about 1,800 (2.5%) were called active. The inconclusive results got no clear call from the source; some entries with a clear call stand among them for comparison. Calls follow the shape of the dose curve; as a rule, active = well fitted activation curve with a large enough effect in the signal ratio, with a control signal flat (not every such curve was filed as active); inconclusive = small, poorly fitted or top-dose-only effect, or effect the other way, or a change in a side signal; inactive = flat fitted curve, though single readings scatter; the % refers to the signal ratio. Where the call is inconclusive, the potency comes from a doubtful curve fit.
# Assay: Cell signaling CRE-BLA (Fsk stim); as to activity change, negative = inhibition: % of control where 0% means no effect
# Conditions: CHO CRE-bla reporter (cAMP response element driving beta-lactamase), forskolin EC10, beta-lactamase ratio
# Procedure, shortened: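 Reporter-gene assay: CHO cells with beta-lactamase behind cAMP responsive elements, co-treated with compound and EC10 NKH 477 for 3 hours at 37 degrees Celsius. Activity came from the 460/530 nm CCF4 emission ratio.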
# [1] = activity change, negative = inhibition: at 38.2 µM (top of the series) unless noted
# Potency is read from the fitted curve at half-maximal effect; tags tell the direction and shape of the fitted curve.
smiles,measurement,setting,value
CC(C)(C)C(=O)/C=c1\[nH]c(=O)/c(=C\c2ccc(C#N)cc2)s1,"activity change, negative = inhibition",[1],inconclusive: 17%
CCCN1CC=C2C(C#N)=C(N)C(C#N)(C#N)C(c3cc(OC)ccc3OC)C2C1 (stereo unspecified),"activity change, negative = inhibition",[1],inconclusive: 29.2%
CC1(C)CC(=O)C2=C(C1)OC1=C(C(=O)CC(C)(C)C1)C2c1ccc(O)cc1O,Potency,[1],"inconclusive: 0.02 µM [rising, full curve, poor fit]"
CN(C)c1nc(-c2cccc(C#N)c2)nc2ccccc12,Potency,[1],"inconclusive: 10 µM [rising, single point]"
O=C(NCCc1c[nH]c2ccccc12)c1c(Cl)nc2sccn12,Potency,[1],"inconclusive: 6.31 µM [rising, partial curve]"
COC(=O)N1CCC2(CC1)CCN(C(c1ccccc1)c1ccccc1)CC2,"activity change, negative = inhibition",[1],inactive
Cc1ccc(C(C(=O)NC2CCCC2)N(Cc2ccc(F)cc2)C(=O)c2csnn2)o1 (stereo unspecified),"activity change, negative = inhibition",[1],inactive
COc1ccccc1-c1cncnc1NCc1ccccc1,"activity change, negative = inhibition",[1],inactive
Cc1ccc(C(=O)Cn2c(N3CCOCC3)nc3c2c(=O)n(C)c(=O)n3C)cc1,"activity change, negative = inhibition",[1],inactive
Fc1cccc2sc(Nc3nnc(-c4ccco4)o3)nc12,"activity change, negative = inhibition",[1],inactive
N#Cc1c(NC(=O)CSc2nc3ccccc3c(=O)n2Cc2ccco2)sc2c1CCCC2,"activity change, negative = inhibition",[1],inactive
N#Cc1ccc(CN2CCCC3(CCN(C(=O)c4cnccn4)CC3)C2)cc1,"activity change, negative = inhibition",[1],inactive
O=C(c1ccncc1)N1CCC2(CC1)CCN(C(c1ccccc1)c1ccccc1)CC2,"activity change, negative = inhibition",[1],inactive
CN(C)c1oc(-c2ccccc2Cl)nc1C#N,Potency,[1],"inconclusive: 25.1 µM [rising, single point]"
CCC12CC3CC(C1)CC(C(=O)O)(C3)C2,"activity change, negative = inhibition",[1],inconclusive: -8.2% [at 7.6 µM]
COc1ccccc1CNc1cc(-c2ccccc2C)ncn1,"activity change, negative = inhibition",[1],inactive
O[C@]1(c2ccccc2)c2ccccc2NC2=NCCN21,"activity change, negative = inhibition",[1],inactive: 4.09% [at 7.6 µM]
COc1cccc(C(=O)NC2CC3CCCC(C2)N3CC(=O)Nc2ccccc2)c1 (stereo unspecified),Potency,[1],"inconclusive: 15.8 µM [falling, partial curve]"
CCCCN(c1ccccc1)S(=O)(=O)c1ccc2c(c1)CCN2C(=O)CCC(=O)O,Potency,[1],"inconclusive: 1 µM [rising, full curve]"
COc1cccc(Nc2ncc3nc(C)c(=O)n(CCc4ccccc4)c3n2)c1,Potency,[1],active: 5.01 µM
CCOc1ccccc1C(=O)NCCCn1ccnc1,Potency,[1],"inconclusive: 15.8 µM [rising, single point]"
COC(=O)c1c(N)n(-c2ccc(N3CCOCC3)cc2)c2nc3ccccc3nc12,"activity change, negative = inhibition",[1],inactive
O=C(COC(=O)C1CC1)Nc1ccc(Oc2ccccc2)cc1,Potency,[1],"inconclusive: 3.16 µM [falling, single point]"
Cc1n[nH]c(C)c1S(=O)(=O)N1CCCCCC1,"activity change, negative = inhibition",[1],inconclusive: -30%
Cn1cc(CC(=O)N2CCN(c3ccc(Cl)cc3)CC2)c2ccccc21,"activity change, negative = inhibition",[1],inconclusive: 20.7%
Cn1c(=O)cnc2cnc(Nc3ccccc3)nc21,"activity change, negative = inhibition",[1],inconclusive: 8.03%
O=C(COC(=O)c1cccs1)NCc1ccco1,"activity change, negative = inhibition",[1],inconclusive: -10.7%
N#Cc1c(N)nc2c(c1-c1cccnc1)CCCCC2,Potency,[1],"inconclusive: 0.0398 µM [rising, single point]"
CCOc1ccccc1NS(=O)(=O)c1cccs1,"activity change, negative = inhibition",[1],inconclusive: -4.47%
CC(=O)Oc1ccc(NC(=O)CSc2ccccc2)cc1,"activity change, negative = inhibition",[1],inactive
CCOC(=O)c1cn(CC(=O)Nc2ccc(C(C)C)cc2)nn1,"activity change, negative = inhibition",[1],inconclusive: 7.79%
CCC(=O)N1CCN(c2ccccc2NC(=O)c2cccc(C)c2)CC1,"activity change, negative = inhibition",[1],inactive
O=C1c2ccccc2C(=O)N1Cc1nc2ccccc2o1,"activity change, negative = inhibition",[1],inactive
CCNc1ncc2nc(-c3cn(C)c4ccccc34)c(=O)n(Cc3ccc(F)cc3)c2n1,Potency,[1],"inconclusive: 7.94 µM [rising, partial curve]"
CCC(=O)Nc1ccc(C(=O)Nc2ccc3c(c2)C(=O)N(CC2CCCO2)C3=O)cc1 (stereo unspecified),"activity change, negative = inhibition",[1],inconclusive: 20.5%
Cc1ccc2nc(NCCCNC(=O)c3cnccn3)c(C#N)cc2c1,"activity change, negative = inhibition",[1],inconclusive: 27.5%
COc1ccc(-c2nnc(-c3cccs3)o2)cc1OC,Potency,[1],"inconclusive: 10 µM [rising, partial curve]"
COc1ccc(-c2cc(C(F)(F)F)nc(SCC(=O)N3CCOCC3)n2)cc1OC,Potency,[1],"inconclusive: 5.01 µM [rising, partial curve]"
CCCc1c(C)c2cc(C)ccc2[nH]c1=O,Potency,[1],"inconclusive: 5.01 µM [rising, partial curve]"
O=C(Nc1ccccc1F)c1ccncc1,Potency,[1],"inconclusive: 3.16 µM [rising, partial curve]"
CCOC(=O)C1CCN(C(=O)c2sc3nc(-c4ccccc4)cn3c2C)CC1,"activity change, negative = inhibition",[1],inconclusive: 23.6%
C/C=C/CSc1nc2c(c(=O)[nH]c(=O)n2C)n1CCC,Potency,[1],"inconclusive: 10 µM [rising, partial curve]"
COc1ncc2nc(C)c(=O)n(Cc3cccs3)c2n1,Potency,[1],active: 12.6 µM
O=C(O)c1cc(N=Nc2ccc([N+](=O)[O-])cc2)ccc1O,"activity change, negative = inhibition",[1],inactive
O=C(NCCCN1CCN(CCCNC(=O)c2ccccc2F)CC1)c1ccccc1F,"activity change, negative = inhibition",[1],inconclusive: -1.71%
CC1CCN(C(=O)C2Cc3ccccc3CN2S(=O)(=O)c2ccc(F)cc2)CC1 (stereo unspecified),"activity change, negative = inhibition",[1],inactive
CCn1c(=O)c(C(=O)CN2CC(C)OC(C)C2)c(N)n(Cc2ccccc2)c1=O (stereo unspecified),"activity change, negative = inhibition",[1],inconclusive: -20.1%
Clc1ccc(CSC2=NCCN2)cc1Cl,"activity change, negative = inhibition",[1],inactive: 23.4% [at 7.6 µM]
CCOC(=O)c1[nH]c2ccc(OCC)cc2c1NC(=O)CN1CCN(c2ccccn2)CC1,"activity change, negative = inhibition",[1],inconclusive: 12.9%
Cc1nc(CC(=O)c2c(C)cc(O)cc2O)cs1,"activity change, negative = inhibition",[1],inactive
CCOC(=O)N1CCN(C(=O)CCn2nc(-c3ccc(Cl)cc3)ccc2=O)CC1,"activity change, negative = inhibition",[1],inconclusive: 1.68%
CCSc1nnc(NC(=O)CSc2nc3c(c(=O)n2-c2ccccc2)SCC3)s1,"activity change, negative = inhibition",[1],inconclusive: 23.4%
COc1cc(OC)cc(C(=O)N2c3ccc(F)cc3CCC2C)c1 (stereo unspecified),"activity change, negative = inhibition",[1],inactive
O=NN(CCCl)C(=O)NCCCl,"activity change, negative = inhibition",[1],inactive
CCCCCCCCCCCCOCC1CO1 (stereo unspecified),"activity change, negative = inhibition",[1],inactive
COC(=O)C1(S(=O)(=O)c2cccc3nsnc23)CC1,"activity change, negative = inhibition",[1],inconclusive: 5.37%
CC1CCN(c2nc3c(c(=O)[nH]c(=O)n3C)n2CCSc2nc3ccccc3o2)CC1,"activity change, negative = inhibition",[1],inactive
Cc1nn(C)c(C)c1CN(C)C(=O)c1cc2nc(-c3ccco3)cc(C(F)(F)F)n2n1,Potency,[1],"inconclusive: 7.94 µM [rising, partial curve]"
COCCCn1c2nc3ccccc3nc2c2c(=O)n(Cc3ccc(Cl)cc3)cnc21,Potency,[1],"inconclusive: 25.1 µM [rising, single point]"
COCC(=O)NCCc1nc(-c2ccccc2)cs1,Potency,[1],"inconclusive: 0.631 µM [falling, partial curve]"
CCC(C)[C@H](NC(=O)NCc1ccccc1)C(=O)O (stereo partly specified),"activity change, negative = inhibition",[1],inconclusive: 10.8%
O=C(CC1(O)C(=O)Nc2ccccc21)c1ccc2c(c1)OCO2 (stereo unspecified),"activity change, negative = inhibition",[1],inconclusive: 7.69% [at 7.6 µM]
CCn1ncc2c1C(=O)NC1c3ccccc3C(=O)N21 (stereo unspecified),Potency,[1],"inconclusive: 12.6 µM [rising, partial curve]"
COc1cccc(-c2nnc(N(C)C(=O)c3ccno3)s2)c1,"activity change, negative = inhibition",[1],inconclusive: -3.35%
CC[C@H](NC(=O)c1c(C)c(-c2ccccc2)nc2ccccc12)c1ccccc1,"activity change, negative = inhibition",[1],inconclusive: 1.46%
same,"activity change, negative = inhibition",at 38.2 µM (top of the series),inactive: -3.07%
CCOC(=O)N1CCN(C(=O)Nc2ccc3nc(C)c(C)nc3c2)CC1,Potency,[1],"inconclusive: 10 µM [rising, partial curve]"
CCOc1cc(-c2ccccc2)nc(N)n1,Potency,[1],"inconclusive: 15.8 µM [rising, partial curve, poor fit]"
CC(C)CC(c1nnnn1Cc1ccco1)N1CCN(c2cccc(Cl)c2)CC1 (stereo unspecified),"activity change, negative = inhibition",[1],inactive
Cc1ccc2cc3cc(C(=O)N4CCN(C(=O)c5ccco5)CC4)sc3nc2c1,Potency,[1],"inconclusive: 10 µM [rising, partial curve]"
O=C(NCCc1c[nH]c2ccccc12)C1Cc2ccccc2CN1C(=O)c1ccco1 (stereo unspecified),Potency,[1],"inconclusive: 10 µM [falling, partial curve]"
COc1cccc(C(=O)N2CCN(C(=O)c3cccc(F)c3)CC2)c1,"activity change, negative = inhibition",[1],inactive
COc1ccc(C(=O)OCCN2CCOCC2)cc1OC,Potency,[1],active: 10 µM
COc1cc(NC(=O)CSCc2cnn(-c3ccccc3)c2-n2cccc2)cc(OC)c1,"activity change, negative = inhibition",[1],inactive
COc1ccc(-c2cc(N3CCCC3)n3ncnc3n2)cc1,Potency,[1],"inconclusive: 10 µM [rising, partial curve]"
Cc1ccccc1C(=O)Nc1ccc(Br)cn1,"activity change, negative = inhibition",[1],inconclusive: -3.98% [at 7.6 µM]
CC1=CC(C)(C)N(C(=O)c2ccccc2)c2ccccc21,"activity change, negative = inhibition",[1],inactive
O=C(O)Cn1c2c(c3ccccc31)CCCC2,"activity change, negative = inhibition",[1],inactive
Cc1[nH]nc(N=CC2=C(O)CC(c3ccco3)CC2=O)c1-c1ccccc1 (stereo unspecified),"activity change, negative = inhibition",[1],inconclusive: 17%
O=C(NCc1cccs1)[C@@H]1CSC2c3ccccc3C(=O)N21 (stereo partly specified),Potency,[1],"inconclusive: 10 µM [falling, single point]"
O=C(c1csnn1)N1CCC2(CC1)CN(c1ccccc1)C2,"activity change, negative = inhibition",[1],inactive
Cc1c(N=Cc2ccc[nH]2)c(=O)n(-c2ccccc2)n1C,"activity change, negative = inhibition",[1],inactive
COc1ccccc1N1C(=O)CC(Nc2ccc(N3CCOCC3)cc2)C1=O (stereo unspecified),Potency,[1],"inconclusive: 6.31 µM [rising, partial curve]"
CS(=O)(=O)N(CC(=O)N1CCN(c2ccccc2)CC1)c1cc(C(F)(F)F)ccc1Cl,Potency,[1],"inconclusive: 5.01 µM [falling, single point]"
CN(C)Cc1ccc(O)c(CCc2ccccc2)n1,"activity change, negative = inhibition",[1],inactive
CC(C)Oc1ccc(C2c3c(oc4ccccc4c3=O)C(=O)N2CCCN2CCOCC2)cc1 (stereo unspecified),"activity change, negative = inhibition",[1],inconclusive: -39.4%
